# Assay results reported in PubChem BioAssay AID624418 (National Center for Advancing Translational Sciences (NCATS), 2012).
# In all, about 410,000 compounds went through this assay and about 530 (0.13%) were called active. Inconclusive means that the source gave no clear call. Such entries were picked first, then a sample of the others. The call rests on the fitted dose curve; in most records, active means well fitted inhibition curve with a large enough effect; inconclusive means small, poorly fitted or top-dose-only effect, or another doubt; inactive means no such curve, though single readings can be large or run the other way. Where the call is inconclusive, the potency comes from a doubtful curve fit.
# Experiment: qHTS of GLP-1 Receptor Inverse Agonists: Cytotox Screen
# Conditions: HEK293 cAMP-luciferase reporter cells, luminescence, 24 h; activity change, negative = inhibition: at 38.3 µM (top of the series)
# Procedure, shortened: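 Seeding density was 200 cells/uL; after overnight-length (12 h) culture, 23 nL compounds went on for 24 h at 37 °C. Readout used a luciferase detection reagent, luminescence taken after 12 min at room temperature.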
# On the % scale 0 is the no-effect control and ±100 the full control effect; potency means the concentration at half of the fitted maximal effect.
Structure (SMILES),Potency,"activity change, negative = inhibition"
Cc1ccc(Sc2ccc(NC(=O)CCl)cc2)c(C)c1,"inconclusive: 11.2 µM [inhibitor, partial curve, poor fit]",
CC(C)(C)c1ccc(S(=O)(=O)/N=C2\C=C(NS(=O)(=O)c3ccccc3)C(=O)c3ccccc32)cc1,"inconclusive: 28.2 µM [inhibitor, single point]",
COc1ccc(C(=O)C(CCC(CNC(C)(C)C)C(=O)c2ccc(OC)cc2)CNC(C)(C)C)cc1 (stereo not given),"inconclusive: 0.501 µM [inhibitor, full curve, poor fit]",
CCCCC(CC)C(=O)Oc1ccc(O)c(C(C)(C)C)c1 (stereo not given),"inconclusive: 11.2 µM [inhibitor, partial curve, poor fit]",
CCCCN(CCCC)C(=S)NC(=O)c1ccccc1Cl,"inconclusive: 11.2 µM [inhibitor, partial curve, poor fit]",
O=C(/C=C/c1ccccc1)c1cc(Br)ccc(=O)c1O,"inconclusive: 28.2 µM [inhibitor, single point]",
COCCNc1nnc(SC(C)C(=O)Nc2ccc(-c3nc4ccc(C)cc4s3)cc2)s1 (stereo not given),,inactive: 6.49%
COc1ccc2sc(-c3ccccc3OC)c(-c3ccc(OCCN(C)C)cc3)c2c1,"inconclusive: 28.2 µM [inhibitor, single point]",
Cc1ccc(C)c(-c2nn(-c3cc(N4CCN(CCO)CC4)ccc3[N+](=O)[O-])c(=O)c3ccccc23)c1,"inconclusive: 28.2 µM [inhibitor, single point]",
CCN(Cc1nc2cc(Cl)ccc2c(=O)[nH]1)C(=O)c1cc(C2CC2)nn1-c1ccccc1,"inconclusive: 28.2 µM [inhibitor, single point]",
c1ccc(CCNc2ncnc3c2cnn3-c2ccccc2)cc1,"inconclusive: 14.1 µM [inhibitor, single point]",
COc1ccccc1N(CC(=O)NC1CCCC1)C(=O)c1oc(C(C)(C)C)cc1C,,inactive: -10%
COc1ccc(-c2csc(N(CCCN(C)C)C(=O)c3ccc(F)cc3)n2)cc1,"inconclusive: 2.82 µM [inhibitor, single point]",
C=CC[C@@H](CC(=O)N(CCO)Cc1ccccc1)C(=O)N[C@H](COC(=O)[C@@H](CC=C)Cc1ccc(F)cc1)C(C)(C)C,"inconclusive: 5.01 µM [inhibitor, partial curve]",
CC(C)(C)c1ccc(C(=O)CSc2ncn[nH]2)cc1,"inconclusive: 20 µM [inhibitor, single point]",
Nc1[nH]c(N=NC(=O)c2ccccc2)c2ccccc12,,inactive: -1.8%
Cc1cc(C)c(N=C2SCC(=O)N2Cc2ccco2)c(C)c1,,inactive: 6.4%
O=C(NC(c1ccc(F)cc1)c1ccc2ccccc2n1)C1CCN(CCOc2ccc(F)cc2)CC1 (stereo not given),"inconclusive: 22.4 µM [inhibitor, single point]",
C#CCN(C[C@@H]1[C@@H](OC(=O)NCCCCCC)[C@@H](OC(=O)NCCCCCC)Cn2c(=O)ccc(=O)n21)S(=O)(=O)c1ccc(C)cc1,"inconclusive: 3.55 µM [inhibitor, full curve, poor fit]",
CCOC(=O)c1cnn(-c2nc(-c3ccc(F)cc3)cs2)c1C(F)(F)F,,inactive: -24.2%
C/C(=N\NC(=S)NCCc1ccccc1)c1ccc(O)cc1O,"inconclusive: 28.2 µM [inhibitor, single point]",
O=C(c1ccc(OC2CCN(Cc3ccccc3OC(F)F)CC2)cc1)N1CCCC1,,inactive: -16.5%

Structure (SMILES),Potency,"activity change, negative = inhibition"
CCOC(=O)c1cccc(NS(=O)(=O)c2c(C)[nH]c(=O)[nH]c2=O)c1,,inactive: -5.05%
Cc1ccc(Cl)cc1NC(=O)CN1C(=O)NC2(CCCCCC2)C1=O,"inconclusive: 31.6 µM [inhibitor, single point]",
CCOC(=O)C1CCCN(C(=O)c2ccc3c(c2)sc2nc(-c4cccc(OC)c4)cn23)C1 (stereo not given),,inactive: 4%
CCNc1nc(NCC)nc(N(C#N)C(C)C)n1,,inactive: 1.54%
Cc1cc(C)n2c(SC(C)C(=O)NC3(C#N)CCCCC3)nnc2n1 (stereo not given),,inactive: 5.96%
CC(C)NC(=S)NN=C1c2ccccc2-c2ccccc21,"inconclusive: 4.47 µM [inhibitor, full curve]",
Cc1cc(=O)[nH]c(NN=Cc2cc(Br)ccc2O)n1,"inconclusive: 0.316 µM [inhibitor, full curve, poor fit]",
Cc1cc(C(F)F)n2nc(C(=O)Nc3sc4c(c3C#N)CCC4)nc2n1,"inconclusive: 25.1 µM [inhibitor, single point]",
O=C(NC1=C(NC2CCS(=O)(=O)C2)C(=O)c2ccccc2C1=O)c1ccccc1 (stereo not given),"inconclusive: 14.1 µM [inhibitor, single point]",
CC(C#N)(NC(=O)CN1CCN(S(=O)(=O)c2ccccc2Cl)CC1)C1CC1 (stereo not given),"inconclusive: 28.2 µM [inhibitor, single point]",
Cc1ccc(C(=O)NC(=S)/C=C2\N(C)c3ccccc3C2(C)C)cc1,"inconclusive: 28.2 µM [inhibitor, single point]",
Cc1c(C(=O)Nc2cc(F)cc(F)c2)cnn1-c1ccccc1,,inactive: -15.3%
O=C(OCC(O)C1OC(c2ccccc2)OC(COC(=O)c2ccccc2)C1O)c1ccccc1 (stereo not given),"inconclusive: 14.1 µM [inhibitor, single point]",
O=C(O)c1ccccc1C(=O)Nc1ccc(-n2ccc(C(F)(F)F)n2)cc1,,inactive: -5.04%
COc1ccc(N2CCN(S(=O)(=O)c3ccc(F)c(C(=O)Nc4ccccc4Cl)c3)CC2)cc1,,inactive: -11%
COc1cc2ccccc2cc1C(=O)N/N=C/c1ccc2c(c1)OCO2,"inconclusive: 28.2 µM [inhibitor, single point]",
COC(=O)c1cc2sccc2n1CC(=O)Nc1cccc(SC)c1,,inactive: 11.7%
CCN(C(=O)c1cn(-c2cccc(OC)c2)c(=O)c2ccccc12)c1ccccc1C,,inactive: 1.25%
CC(=O)Nc1ccc(NC(=O)c2nc(S(=O)(=O)Cc3ccc(F)cc3)ncc2Cl)cc1,"inconclusive: 28.2 µM [inhibitor, single point]",
O=C(N(c1ccccc1)c1ccccc1)N(c1ccccc1)c1ccccc1,,inactive: -0.82%
COc1ccc(Sc2nc(-c3ccccn3)ncc2OC)cc1,"inconclusive: 3.16 µM [inhibitor, full curve]",
O=C(Nc1ccc(Oc2ccccc2)cc1)C1CCN(c2c3c(nc4ncnn24)CCC3)CC1,"inconclusive: 11.2 µM [inhibitor, single point]",

Structure (SMILES),Potency,"activity change, negative = inhibition"
COc1ccc(-n2c(SCC(=O)NCc3ccc(Cl)cc3)nc3ccsc3c2=O)cc1,,inactive: 1.84%
CCOC(=O)N1CCN(C(=S)Nc2ccc3nc(N4CCN(CC)CC4)cc(C)c3c2)CC1,"inconclusive: 10 µM [inhibitor, single point]",
O=C(COc1ccc2c(c1)C(=O)CC1(CCCCC1)O2)NCc1ccccn1,,inactive: 24.3%
CCN(C(=O)c1ccc2c(Cl)c3c(nc2c1)CCC3)c1ccc(C)c(C)c1,"inconclusive: 12.6 µM [inhibitor, single point]",
CC(=O)/C(=N\Nc1ccccc1Cl)Sc1cccc2cccnc12,"inconclusive: 28.2 µM [inhibitor, single point]",
Cc1ccccc1NC(=O)Cc1nc(COC(=O)c2ccc(S(C)(=O)=O)c([N+](=O)[O-])c2)cs1,"inconclusive: 12.6 µM [inhibitor, single point]",
Cc1ccc(S(=O)(=O)NCCNc2ccc([N+](=O)[O-])cc2C(F)(F)F)cc1,"inconclusive: 10 µM [inhibitor, single point]",
O=C(Nc1nc(-c2ccccn2)cs1)c1ccco1,"inconclusive: 10 µM [inhibitor, single point]",
CC(=O)c1c(C)[nH]c(C(=O)OCc2ccccc2)c1C,"inconclusive: 17.8 µM [inhibitor, single point]",
O=C1CC(c2ccc(F)cc2)SC(N(c2ccccc2)c2ccccc2)=N1 (stereo not given),"inconclusive: 31.6 µM [inhibitor, partial curve, poor fit]",
O=C(O)CN1C(=O)/C(=C2\SC(=S)N(C(Cc3ccccc3)C(=O)O)C2=O)c2ccccc21 (stereo not given),"inconclusive: 20 µM [inhibitor, single point]",
COc1cccc(Cn2nc(SC)c(S(=O)(=O)c3ccccc3)c2N(C(C)=O)C(C)=O)c1,,inactive: -2.7%
CCCOc1ccc(C2c3c(-c4ccccc4O)n[nH]c3C(=O)N2CCc2ccccc2)cc1OCC (stereo not given),,inactive: -13.2%
C/C(=N\NC(=S)Nc1c(C)cccc1C)c1ccc(O)cc1,"inconclusive: 11.2 µM [inhibitor, partial curve, poor fit]",
CCN(CC)S(=O)(=O)c1cc([N+](=O)[O-])ccc1NNC(=O)Nc1ccc(F)cc1,"inconclusive: 15.8 µM [inhibitor, single point]",
O=S(=O)(c1cccc(Cl)c1)c1nnn2c1nc(NCc1ccc3c(c1)OCO3)c1sccc12,"inconclusive: 0.501 µM [inhibitor, full curve, poor fit]",
C[C@@H](c1ccccc1)N1C[C@@H](COCc2ccccc2)Oc2cc(N3CC[C@@H](N(C)C)C3)ccc2S1(=O)=O,"inconclusive: 28.2 µM [inhibitor, single point]",
O=C(N/N=C/c1ccc([N+](=O)[O-])o1)c1sc2ccccc2c1Cl,"inconclusive: 28.2 µM [inhibitor, single point]",
CC(C1CC1)N(Cc1ccccc1)C(=S)Nc1cccc(C(F)(F)F)c1 (stereo not given),,inactive: -8.5%
COc1ccccc1-c1cc(-c2ccccc2)nc(SC(C(N)=O)c2ccccc2)c1C#N (stereo not given),"inconclusive: 11.2 µM [inhibitor, partial curve, poor fit]",
Cc1ccc(SCCNC(=O)c2ccc(C)c(S(=O)(=O)Nc3ccccc3C)c2)cc1,"inconclusive: 20 µM [inhibitor, single point]",
